Assay results published in the supplement of paper PMC10338343.
± gives the standard deviation. In all, about 3,700 sequences were measured (“pre-steady-state target cleavage rate”: median about 0.02, highest 2% from about 0.23 on). This is a selection; strong and weak results do not stand in their true shares.

test system: MILI (PIWIL2) piRISC loaded with Kctd7 piRNA (26 nt); assay: pre-steady-state target cleavage rate (min^-1); MIWI and MILI are mouse PIWI proteins and EfPiwi is from a freshwater sponge; tags in brackets are library labels; higher = faster piRNA-guided slicing of the target; conditions: guide: Kctd7 piRNA 5'p-UGUUAAUCUCUCAGAGAAGGUGACAG; auxiliary factor: 500 nM mouse GTSF1
Method in brief: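 Cleave-'n-Seq measured uncleaved targets by sequencing after a transcribed, DNA-blocked target RNA library […] was mixed with 1 nM active affinity-purified piRISC holding one synthetic guide, with or without 500 nM GTSF1 partner protein, at 33 °C in HEPES–potassium acetate buffer for 0–8 or 0–960 min. Counts were normalised to depth and to weakly complementary targets, three trials were pooled, and k3 was capped at 0.0001 min^-1. A burst-and-steady-state fit gave the pre-steady-state cleavage rate.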
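Also: 1 nM active piRISC with 0.1 nM target library at 33 °C single turnover.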

Sequence	pre-steady-state target cleavage rate
UAGUGACAGUGGUUCUCUGAGACAAUAACA	< 0.0001
UAGUGACACACCUUCUCCGAGAGAUUAACA	0.133 ± 0.035
UAGUGAGUCACCUUCUCUGAGAGAUAAACA	0.249 ± 0.052
UAGUCUGAGACCUUCUCUGAGAGAUUAACA	0.123 ± 0.0076
UAGUGACACACCUUCUGUGAGAGAUUAUCA	0.0112 ± 0.0058
UAGUCUGUCACCUUCUCUGAGAGAUUGAACA	0.214 ± 0.029
UAGUGAGUCACCUUCAGAGAGAGAUUAACA	0.0146 ± 0.0059
UAGUGACAGUGCAUCUGUGAGAGAUUAACA	0.00711 ± 0.0027
UAGUGACAGUCCUUCUCUGAGAGAUAUAACA	0.0573 ± 0.0087
UAGUGACACACCUUCUCUGUGAGAUUAACA	0.0505 ± 0.0056
UAGUGAGUCACCUUCUCUGUGAGAUUAACA	0.0632 ± 0.0071
UAGUGACAGUGCUUUUCUGAGAGAUUAACA	0.0398 ± 0.0063
UAGUGACUACCUUCUCUGAGAGAUUAACA	0.105 ± 0.0079
UAGUGACUCUCCUUCUCAGAGAGAUUAACA	0.0459 ± 0.0049
UAGUGAGUCGCCUUCUCUGAGAGAUUAACA	0.193 ± 0.021
UAGUGACAGUGCUUCUCUCAGAGUUUAACA	0.00367 ± 0.0028
UAGUCUGUCACCUUCUCUGAGAGAUUAAUA	0.118 ± 0.02
UAGUGACAGACCUUGUCUGAGAGAUAAACA	0.0053 ± 0.0042
UAGUGACACACCUUCUCUGAGAGAUUAUCA	0.121 ± 0.016
UAGUCUGUCUCCUUGUCUGAGAGAUUAACA	0.0885 ± 0.012
UAGUGAGUCACCUUCUCUGAGAGAUUGACA	0.208 ± 0.042
UAGUGACUGACCUUCACUGAGAGAUUAACA	0.129 ± 0.02
UAGUGACAGUCCUUGACUGAGAGAUUAACA	0.012 ± 0.0034
UAGUGUGUCACCAACUCUGAGAGAUUAAGA	0.0761 ± 0.016

Sequence	pre-steady-state target cleavage rate
UAGUGACAGUCCAUCUCUGAGACAUUAACA	0.00298 ± 0.0025
UAGUCUGUGACCUUCUCUGAGAGAUUAUGA	0.0293 ± 0.0083
UAGUGUGUCACCUUCUCUGAGAGAAAAACA	0.0632 ± 0.024
UAGUCAGUCACCUUGUCUGAGAGAUUAACA	0.109 ± 0.018
UAGUGUGUCACCUUCUCAGAGAGAUUAUCA	0.092 ± 0.022
UAGUGUGUCACCUUCUCUGAGGGAUUAACA	0.077 ± 0.0082
UAGUGUGUCACCUUUUCUGAGAGAUUAACA	0.249 ± 0.02
UAGUGACUCAGCUUCUCUGACAGAUUAACA	0.0133 ± 0.0041
UAGUGACAGUGGAUCUCUCACAGAUUAACA	< 0.0001
UAGUGACAGUCCUUGUCUGACAGAUUAACA	0.018 ± 0.0051
UAGUGACACUGCUUCUCUGAGAGAUUAACA	0.0787 ± 0.0078
UAGUCUGUCUCCUUCUCUGAGAGAUUAAGA	0.054 ± 0.012
UAGUGACAGUGCUUUCUCUGAGAGAUUAACA	0.0826 ± 0.0083
UAGUGAGUCUCCUUGUCUGAGAGAUUAACA	0.0445 ± 0.011
UAGUCUGUCACCUUCUCUGCGAGAUUAACA	0.109 ± 0.015
UAGUGUGUCACCUUCUCUGACAGAUUAACA	0.073 ± 0.008
UAGUGAGACACCUUCUCUGAGUGAUUAACA	0.0036 ± 0.0027
UAGUGUGUCACCUUCUUUGAGAGAUUAACA	0.229 ± 0.016
UAGUGAGUGUGCUUCUCUGAGAGAUUAAGA	0.0112 ± 0.0028
UAGUGUGUCACCUUCAGUGAGAGAUUAUGA	0.00477 ± 0.0036
UAGUCUGUGACCUUCUCAGAGAGAUUAACA	0.0991 ± 0.0093
UAGUGUGUCACCAACUCUGAGAGAUUAUGA	0.022 ± 0.0072
UAGUGACUCACCUUCUGUGAGAGAUAAACA	0.0306 ± 0.0065
UAGUCUGUCACCUUCUCUCAGAGAUUAAGA	0.00947 ± 0.0051

Sequence	pre-steady-state target cleavage rate
UAGUGUGUCACCUUCUCUGAGAGAUUAAACA	0.214 ± 0.029
UAGUGUGUCACCUAGACUGAGAGAUUAACA	0.0513 ± 0.0065
UAGUGACACACCAUCUCUGAGAGAUUUACA	0.0898 ± 0.017
UAGUGUGUCAGCUUCUCUGAGAGAUUAUCA	0.108 ± 0.016
UAGUCUGUCACCUUCACUGAGAGAUUAACA	0.14 ± 0.012
UAGUGACUCACCUUCUCUGUGAGAUUAUCA	0.00767 ± 0.005
UAGUGACUCACCAUCUCAGAGAGAUUAACA	0.0451 ± 0.0063
UAGUGACACACCUACUCUGAGAGAUUUACA	0.0755 ± 0.018
UAGUGACUCACCUUCUCUGACAGUUUAACA	0.0236 ± 0.008
UAGUCUGAGUCCUUCUCUGAGAGAUUUUGA	0.00489 ± 0.0029
UAGUGUGUCACCUUCUCAGAGAGUUUAACA	0.143 ± 0.041
UAGUGACACACCUUCUCUGAGAGAUUAUACA	0.108 ± 0.032
UAGUGACUCACGUUCUCUGAGAGAUUUACA	0.0554 ± 0.015
UAGUGACAGUCCCUUCUCUGAGAGAUUAACA	0.187 ± 0.017
UAGUGAGUCUCCUUCUCUGAGAGAUAAACA	0.00873 ± 0.0047
UAGUGUGUCACCUUCUCUGUAGAGAUUAACA	0.0119 ± 0.0041
UAGUCUGUCACCUUUUCUGAGAGAUUAACA	0.209 ± 0.015
UAGUGACUCACCUUCUCAGAGAGAUUAACA	0.0883 ± 0.007
UAGUGAGUCACCUUCUCUGAGACGAUUAACA	0.0798 ± 0.012
UAGUGAGUCACCUUCUCUGAGAGAUUGAACA	0.143 ± 0.023
UAGUGUGUCACCUUCUCUGUGAGAUUAUGA	0.0178 ± 0.0076
UAGUGACAGUGGUUGUGUGAGAGAUUAACA	< 0.0001
UAGUGUGUCACCUUCUCUGAGAGUUAACA	0.194 ± 0.055
UAGUGUGUCACGAUCUCUGAGAGAUUAACA	0.116 ± 0.0092
